According to PubChem BioAssay AID1347120 (National Center for Advancing Translational Sciences (NCATS), 2019):
The whole screen tested about 390,000 compounds, of which about 930 (0.24%) were called active. The shares of active, inactive and inconclusive entries below differ from those in the screen. The call rests on the fitted dose curve; in most records, active means well fitted activation curve with a large enough effect; inconclusive means small, poorly fitted or top-dose-only effect; inactive means no such curve, though single readings can be large or run the other way. Potencies of inconclusive entries are doubtful fits and often do not repeat.

Assay: qHTS for Suppressors of FUS Proteinopathy: Primary screen using FUS-linked yeast assay; further: nearly all actives have a fitted effect of over 55% in size
Conditions: S. cerevisiae FUS-expressing, OD600, 24 h; Potency: growth rescue; series mostly up to 76.6 µM
In short: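 Absorbance at 600 nm, taken 24hr after compound addition, measured rescue of FUS-yeast growth at 30C. Induction used 2% galactose with seeding at OD 0.005. Controls: CP55940 from 92uM final, DMSO only.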
Potency means the concentration at half of the fitted maximal effect; tags describe the fitted curve by direction and shape.

SMILES | Potency
CCCC(=O)Nc1nc2c(s1)CC(C(C)(C)C)CC2 (stereo not given) | inconclusive: 17.8 µM [activator, partial curve, poor fit]
Cc1ccc(NC(=O)CN2C(=O)S/C(=C\c3cc(C)n(C)c3C)C2=O)cc1 | inconclusive: 39.8 µM [activator, partial curve, poor fit]
Cc1ccc(CN2C(=O)CC(c3ccc(Cl)cc3)c3c(C)nn(-c4nc(C)cc(C)n4)c32)cc1 (stereo not given) | inconclusive: 28.2 µM [activator, single point]
COc1ccc(-n2nc3c(c2NC(=O)C(=O)NCc2ccccc2)CSC3)cc1 | inconclusive: 50.1 µM [activator, single point]
OC[C@@H]1[C@@H](c2ccccc2)C(c2ccccc2)=NN1c1ccccc1 | inactive
COc1cc(C(=O)Oc2ccccc2/C=N/NC(=O)c2ccc(Cl)cc2Cl)cc(OC)c1OC | inconclusive: 12.6 µM [activator, partial curve, poor fit]
Cc1onc(-c2ccccc2)c1C(=O)Nc1ccc(S(=O)(=O)NC(C)(C)C)cc1 | inconclusive: 0.891 µM [activator, full curve, poor fit]
COc1cc(C(=O)OCC(=O)NC23CC4CC(CC(C4)C2)C3)cc(OC)c1OC | inconclusive: 50.1 µM [activator, single point]
O=C(O)c1ccc2c(c1)C(=O)/C(=C\c1ccco1)C2=O | inactive
CCOC(=O)c1c(C)[nH]c(C(=O)NNC(=O)c2ccc(C(C)(C)C)cc2)c1C | inconclusive: 25.1 µM [activator, single point]
CCN(CC)S(=O)(=O)c1ccc(O)c(NC(=O)c2cc(-c3cc(OC)c(OC)c(OC)c3)nc3ccccc23)c1 | inactive
Cc1ccc(C(=O)OCC(=O)Nc2sc3c(c2C#N)CCCCC3)cc1NC(=O)c1ccco1 | inconclusive: 39.8 µM [activator, partial curve, poor fit]
O=C(c1cccc(S(=O)(=O)N2CCc3ccccc32)c1)N1CCc2ccccc2C1 | inconclusive: 44.7 µM [activator, single point]
CCOP(=O)(c1ccccc1)c1nc(-c2ccccc2Cl)oc1N1CCCCC1 (stereo not given) | inconclusive: 50.1 µM [activator, single point]
CC1(C)Cc2ccccc2C(/C(=N/O)C(N)=O)=N1 | inconclusive: 20 µM [activator, partial curve]
CCOC(=O)c1sc2nc(-c3ccccc3)ccc2c1N | inconclusive: 31.6 µM [activator, single point]
Cc1ccc(NC(=O)C2CCCN2S(=O)(=O)c2cccc3nsnc23)c(Br)c1 (stereo not given) | inactive
COc1ccc2c(c1)OC[C@H]1[C@H]2N2C(=O)CN(CCc3c[nH]c4ccccc34)C(=O)[C@@]2(C)[C@H]1c1ccccc1 | active: 22.4 µM
COC(=O)[C@]12C[C@H](CC(=O)NCc3ccc(OC)c(OC)c3)C(=O)N(Cc3ccc(Cl)cc3Cl)C1=C[C@H](C1CCCC1)O[C@@H]2C | inconclusive: 28.2 µM [activator, single point]
COc1ccccc1CN1CC(C(=O)NCc2cc(C(C)C)no2)CCC1=O (stereo not given) | inactive

SMILES | Potency
CCCCCCC(=O)N1C/C=C\C(c2ccc(OC)cc2)N(Cc2ccc(F)cc2)C(=O)C1 (stereo not given) | inconclusive: 50.1 µM [activator, single point]
CC1CCCCN1C(=O)c1ccc(CNC(=O)c2cccc(Br)c2)cc1 (stereo not given) | inconclusive: 20 µM [activator, partial curve, poor fit]
O=C1/C(=C/c2ccco2)N=C(N2CCCCC2)N1c1ccccc1 | inconclusive: 28.2 µM [activator, single point]
CCC(=O)Nc1c(C#N)c2nc3ccccc3nc2n1-c1ccccc1C | inactive
Cc1ccc(-n2nc(-c3cccs3)cc2C(=O)NCC2CCCO2)c(C)c1 (stereo not given) | inconclusive: 25.1 µM [activator, partial curve, poor fit]
CCOC(=O)[C@@H]1[C@H]2COc3ccc(Br)cc3[C@@H]2N2C(=O)N(c3ccc(OC)cc3)C(=O)[C@@]12C | inconclusive: 28.2 µM [activator, single point]
Cc1cccc(-c2nc(CS(=O)CC(=O)NC3CCCC3)c(C)o2)c1 (stereo not given) | inactive
CCOC(=O)C1=C(NC(=S)NC(=O)c2ccccc2)c2ccccc2CC1(C)CC (stereo not given) | inactive
COc1ccccc1C1CC(c2c(-c3ccccc3)c3cc(Cl)ccc3[nH]c2=O)=NN1S(C)(=O)=O (stereo not given) | inconclusive: 35.5 µM [activator, single point]
CCNC(=O)C1(C)CCN(C(=O)c2ccc(F)cc2Cl)C1 (stereo not given) | inactive
COc1cc(-c2nc(-c3ccc4c(c3)-c3ccccc3S4(=O)=O)c(-c3ccccc3)[nH]2)cc(OC)c1OC | inactive
CCC1Nc2ncnc(N3CCCCC3)c2N(Cc2ccc(Cl)cc2)C1=O (stereo not given) | inconclusive: 31.6 µM [activator, single point]
CCOc1ccc(/C=N/NC(=S)NC2CC3CCC2C3)cc1 (stereo not given) | inactive
C=CC1CN(C(=O)OCC(Cl)(Cl)Cl)C2CC3c4ccc(OC)cc4NC3C3CC1C2CO3 (stereo not given) | inconclusive: 35.5 µM [activator, single point]
Cc1ccc(S(=O)(=O)N2CCCCC2)cc1NC(=O)Cn1ncc(Cl)c(Cl)c1=O | inconclusive: 12.6 µM [activator, partial curve]
COc1ccc(C2C(C#N)=C(N)OC3=C2C(=O)CCC3)cc1Cn1nc(C)c([N+](=O)[O-])c1C (stereo not given) | inconclusive: 25.1 µM [activator, partial curve, poor fit]
CN(C)/C=C/C(=O)c1ccc(S(=O)c2ccccc2)cc1 (stereo not given) | inconclusive: 50.1 µM [activator, single point]
CCCSc1ccc([C@@H]2[C@@H]3C(=O)N(CC)C(=O)[C@@H]3[C@]3(C(=O)OC)CCCCN23)cc1 | inconclusive: 31.6 µM [activator, partial curve]
O=S(=O)(N[C@@H]1CCCC[C@@H]1N1CCOCC1)c1ccc(Cl)cc1 | inactive
Cc1ccc(C)c(N2CCN(CC(=O)Nc3ccc([N+](=O)[O-])cc3C(=O)Nc3ccccc3F)CC2)c1 | inconclusive: 56.2 µM [activator, partial curve, poor fit]
